Source: PMC4336329 (PLoS ONE, 2015)
About 14,000 (4.5%) of roughly 310,000 compounds showed an effect of 50% or more. Effects have a minus sign here. This is one part of the list.

These compounds were tested against human ether-à-go-go-related gene (hERG) potassium channel (human, UniProt Q12809) (assay: primary screen, population patch clamp on CHO cells stably expressing hERG).
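Note: peak tail current of the secondary pulse compared with the same well before compound.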

human ether-à-go-go-related gene (hERG) potassium channel, sequence (Q12809 whole entry, looked up): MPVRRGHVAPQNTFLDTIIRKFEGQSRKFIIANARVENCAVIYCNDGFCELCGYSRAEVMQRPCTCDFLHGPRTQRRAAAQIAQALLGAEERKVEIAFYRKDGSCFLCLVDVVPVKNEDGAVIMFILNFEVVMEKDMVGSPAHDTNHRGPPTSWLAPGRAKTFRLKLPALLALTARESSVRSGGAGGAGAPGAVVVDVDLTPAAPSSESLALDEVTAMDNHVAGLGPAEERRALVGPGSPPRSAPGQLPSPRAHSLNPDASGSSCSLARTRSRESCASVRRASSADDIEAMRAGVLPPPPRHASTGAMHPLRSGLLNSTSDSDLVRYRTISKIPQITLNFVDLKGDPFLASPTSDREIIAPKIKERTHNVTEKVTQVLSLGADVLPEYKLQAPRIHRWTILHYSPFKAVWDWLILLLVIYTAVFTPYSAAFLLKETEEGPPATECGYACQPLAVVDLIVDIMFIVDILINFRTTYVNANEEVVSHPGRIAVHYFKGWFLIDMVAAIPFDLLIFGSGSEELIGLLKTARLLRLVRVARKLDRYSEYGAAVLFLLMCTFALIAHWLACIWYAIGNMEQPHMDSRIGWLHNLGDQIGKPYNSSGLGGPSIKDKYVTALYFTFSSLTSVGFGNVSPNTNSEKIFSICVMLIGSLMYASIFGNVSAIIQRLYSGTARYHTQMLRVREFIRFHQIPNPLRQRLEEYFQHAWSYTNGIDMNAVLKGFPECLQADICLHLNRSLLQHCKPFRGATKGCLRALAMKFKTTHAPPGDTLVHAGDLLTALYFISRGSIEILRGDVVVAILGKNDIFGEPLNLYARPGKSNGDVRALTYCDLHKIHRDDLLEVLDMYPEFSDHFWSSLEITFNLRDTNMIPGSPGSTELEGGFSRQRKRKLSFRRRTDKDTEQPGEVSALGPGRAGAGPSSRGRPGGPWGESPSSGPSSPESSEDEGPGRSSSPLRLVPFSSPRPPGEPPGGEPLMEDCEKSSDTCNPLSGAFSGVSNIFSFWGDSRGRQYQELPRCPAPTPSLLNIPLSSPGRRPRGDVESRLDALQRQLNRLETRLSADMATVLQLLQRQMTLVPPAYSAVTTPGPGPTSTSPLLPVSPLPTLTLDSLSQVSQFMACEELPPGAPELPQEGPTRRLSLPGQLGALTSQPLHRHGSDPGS

| Structure (SMILES) | hERG current change (%, negative = inhibition) at 10uM [%] |
| --- | --- |
| COc1ccc(NC(=O)CCC(=O)N/N=C/c2ccc([N+](=O)[O-])s2)cc1 | -8.54 |
| CN(CC(=O)Nc1cccc(F)c1)CC(=O)Nc1ccccc1Oc1ccccc1.O=C(O)C(=O)O | -25.4 |
| Cn1c(=N)c(S(=O)(=O)c2ccccc2)cc2c(=O)n3ccccc3nc21 | -4.58 |
| CCc1ccccc1Nc1nc(N)nc(CSCC(=O)Nc2ccc(C)c(C)c2)n1 | -36.8 |
| O=S(=O)(c1ccc2nc(-c3ccccc3)[nH]c2c1)N1CCN(c2cccc(Cl)c2)CC1 | 15.3 |
| Clc1ccccc1/C=C/c1nc(-c2cccnc2)no1 | 6.16 |
| COc1ccc(C(CNC(=O)c2ccccc2SC)N(C)C)cc1 (stereo not drawn) | 2.02 |
| O=c1c2ccccc2nc2ccc(NCc3ccco3)nn12 | -43.8 |
| Cc1ccc(Nc2cc(C)nc(-c3ccccc3)n2)cc1 | -1.86 |
| O=C(CCNS(=O)(=O)c1c(Cl)cccc1Cl)OCC(=O)c1ccccc1 | -1.75 |
| COc1cc(OC)nc(NC(=O)COC(=O)C2CCCCC2)n1 | -0.806 |
| COc1ccc(OC2OC3COC(C)(C)OC3C(O)C2NC(C)=O)cc1 (stereo not drawn) | 5.2 |
| Cc1ccc(Cn2nnc3c(=O)[nH]c(C4CCCN(S(=O)(=O)c5ccccc5)C4)nc32)cc1 (stereo not drawn) | -2.74 |
| Nc1nc(SCCC(F)=C(F)F)n[nH]1 | -21 |
| COc1ccc(NC(=O)C2CCCN(S(=O)(=O)c3c(C)[nH]c(=O)[nH]c3=O)C2)cc1 (stereo not drawn) | -10.9 |
| COc1ccc(-n2ccnc2SCC(=O)NO)cc1 | 9.62 |
| O=C(/C=C/c1ccc([N+](=O)[O-])cc1)c1cccnc1 | -53 |
| CCCNC(=O)CC1Sc2ccccc2NC1=O (stereo not drawn) | 9.03 |
| CCOc1ccc(NC(=O)C2CCN(S(=O)(=O)c3cccs3)CC2)cc1 | 7.96 |

| Structure (SMILES) | hERG current change (%, negative = inhibition) at 10uM [%] |
| --- | --- |
| CCc1cccc(CC)c1N(COC)C(=O)Cn1c(C(C)O)nc2ccccc21 (stereo not drawn) | -7.8 |
| CCOC(=O)c1c(C)c(C(=O)N2CCN(c3cccc(Cl)c3)CC2)c(C)n1C | -23.6 |
| CCOc1ccc(S(=O)(=O)N(CC(=O)NCc2ccncc2)c2ccc(C)cc2)cc1 | -56.5 |
| Cc1cccc(C)c1NC(=O)N1CCC(c2nc3ccccc3o2)CC1 | -5.91 |
| COCCC(=O)N1CCC(Oc2ccc(C(=O)N3CCCC(CCCO)C3)cc2)CC1 (stereo not drawn) | 23.6 |
| COCCN(C(=O)c1csnn1)C(C(=O)NC1CCCCC1)c1ccccc1F (stereo not drawn) | 3.83 |
| Cc1ccc(-c2nc3ncccc3o2)cc1NC(=O)CC(C)C | -3.67 |
| CC(C)N(Cc1cnn(C)c1)Cc1nc(-c2ccc(Cl)cc2)no1 | 3.63 |
| CCN(C1CCCCC1)S(=O)(=O)c1ccc(OC)c(C)c1 | -4.2 |
| CCC1CCCCN1C(=O)N[C@@H](CCSC)C(=O)OC (stereo partly drawn) | -11 |
| CC(/C=N\Nc1nnc2c(n1)[nH]c1c(C)cccc12)=C\c1ccco1 | 13.1 |
| CN1CN(C)c2cccc3cccc1c23 | 4.19 |
| O=C(Cn1c(=O)oc2ccccc21)Nc1nnc(N2CCCCCC2)s1 | -5.64 |
| c1ccc(CSc2nncn2-c2ccccn2)cc1 | -0.388 |
| COc1ccc(CN(C)CC(=O)NC(=O)NC2CCCCC2)cc1 | -20.4 |
| O=C(COc1cc2oc(=O)c3c(c2cc1Cl)CCCC3)N1C[C@H]2C[C@@H](C1)c1cccc(=O)n1C2 | -36.7 |
| O=C(O)CNC(=S)N(Cc1ccccc1)Cc1cccs1 | 34 |
| CN(CC(=O)Nc1ccccc1N1CCOCC1)CC(=O)Nc1ccc(F)c(F)c1F | 8.1 |
| Cc1nc2ccccn2c1C(=O)NCC(C)C | 4.62 |

| Structure (SMILES) | hERG current change (%, negative = inhibition) at 10uM [%] |
| --- | --- |
| NNC(=S)NC1CCCCC1 | 31.7 |
| CCc1ccc2nc(NC(=O)CCCc3cccs3)sc2c1 | 5.25 |
| NNc1nnc(-c2ccccc2)c(-c2ccccc2)n1 | -2.13 |
| COc1ccc(CCn2c([S-])nc3ccccc3c2=O)cc1.[Na+] | 20.1 |
| O=C(CCN1C(=O)/C(=C\c2cccs2)SC1=S)Nc1nccs1 | 10 |
| COc1ccc(CNc2nc(SCc3cc(=O)n4cc(Cl)ccc4n3)nc3ccccc23)cc1 | -44 |
| Brc1ccc(-c2nnc(-c3ccccc3)c(N3CCSCC3)n2)cc1 | 4.62 |
| CC(C)(C)c1ccc(OCCC(=O)Nc2cccc(S(=O)(=O)N3CCCCC3)c2)cc1 | 16.4 |
| CC(C)OC(=O)NS(=O)(=O)c1cccc([N+](=O)[O-])c1 | 13.7 |
| CCOC(=O)c1ccoc1CSCc1ccc(C(=O)OC)o1 | 5.24 |
| Cl.O=C(CCN1CCCCC1)c1ccc2c(c1)OCCO2 | 4.82 |
| Cc1cccnc1NC(=O)CCCN1C(=O)c2ccccc2C1=O | 3.22 |
| COc1cc(C(=O)N2CCC(n3c(C)nc4cc(F)ccc43)CC2)cc(OC)c1OC | -8.07 |
| CCOCCCNC(=O)C(c1ccccc1)N(Cc1ccc2c(c1)OCO2)C(=O)c1ccccc1O (stereo not drawn) | 2.92 |
| CC(=O)c1cccc(NC(=O)Cn2nc(-c3ccccc3Cl)ccc2=O)c1 | -1.1 |
| Cc1ccc(N2C(=O)CSC2c2ccc3c(c2)OCO3)cc1 (stereo not drawn) | 1.2 |
| Cc1cnc(NC(=O)CSc2nnc(-c3ccccc3)n2Cc2ccccc2)s1 | 0.896 |
| Cc1ccnc(NS(=O)(=O)c2ccc(NC(=O)CCS(=O)(=O)c3ccccc3)cc2)n1 | 27.6 |
| CSc1cccc(NC(=O)c2sc3nc4n(c(=O)c3c2C)CCC4)c1 | -24.6 |
